# From the supplement of paper PMC8728848
# The list shows a part of the results.
# Assays:
# Experiment in all cases: glycan array binding signal (z-score within array); higher = stronger binding
# Settings in all cases: glycan notation: IUPAC condensed, linker removed
# [1] = target: Fuc(a1-2)Gal(b1-4)[Fuc(a1-3)]GlcNAc
# Procedure, shortened: (§1)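 Negative Z-scores can be read as non-binding. The Z-score is calculated within each array and then averaged across arrays of one protein sequence at different concentrations or buffers and across linkers. Arrays, 3228 in all, were curated from the Consortium for Functional Glycomics database and kept only where the protein sequence was available.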
# [2] = target: Fuc(a1-2)Gal(b1-4)[Fuc(a1-3)]GlcNAc(b1-2)Man(a1-3)[Fuc(a1-2)Gal(b1-4)[Fuc(a1-3)]GlcNAc(b1-2)Man(a1-6)]Man(b1-4)GlcNAc(b1-4)[Fuc(a1-6)]GlcNAc
# Procedure, shortened: as §1
# [3] = target: Fuc(a1-2)Gal(b1-4)[Fuc(a1-3)]GlcNAc(b1-2)[Fuc(a1-2)Gal(b1-4)[Fuc(a1-3)]GlcNAc(b1-4)]Man(a1-3)[Fuc(a1-2)Gal(b1-4)[Fuc(a1-3)]GlcNAc(b1-2)Man(a1-6)]Man(b1-4)GlcNAc(b1-4)GlcNAc
# Procedure, shortened: as §1
# [4] = target: Fuc(a1-2)Gal(b1-4)[Fuc(a1-3)]GlcNAc(b1-3)Gal(b1-4)[Fuc(a1-3)]GlcNAc
# Procedure, shortened: as §1
# [5] = target: Fuc(a1-2)Gal(b1-4)[Fuc(a1-3)]GlcNAc(b1-3)Gal(b1-4)[Fuc(a1-3)]GlcNAc(b1-3)Gal(b1-4)[Fuc(a1-3)]GlcNAc
# Procedure, shortened: as §1
# [6] = target: Fuc(a1-2)Gal(b1-4)[Fuc(a1-3)]GlcNAc(b1-3)GalNAc
# Procedure, shortened: as §1
# [7] = target: Fuc(a1-2)Gal(b1-4)[Fuc(a1-3)]GlcNAc(b1-3)[Neu5Ac(a2-6)Gal(b1-4)GlcNAc(b1-6)]Gal(b1-4)Glc
# Procedure, shortened: as §1
# [8] = target: Fuc(a1-2)Gal3S(b1-4)GlcNAc
# Procedure, shortened: as §1
# [9] = target: Fuc(a1-2)Gal6S(b1-3)GlcNAc
# Procedure, shortened: as §1
# [10] = target: Fuc(a1-2)Gal6S(b1-3)GlcNAc6S
# Procedure, shortened: as §1
# Fuc(a1-2)Gal6S(b1-4)Glc = target: Fuc(a1-2)Gal6S(b1-4)Glc
# Procedure, shortened: as §1
# [11] = target: Fuc(a1-2)Gal6S(b1-4)Glc6S
# Procedure, shortened: as §1
# Fuc(a1-2)[Gal(a1-3)]Gal = target: Fuc(a1-2)[Gal(a1-3)]Gal
# Procedure, shortened: as §1
# [12] = target: Fuc(a1-2)[Gal(a1-3)]Gal(b1-3)GalNAc
# Procedure, shortened: as §1
# [13] = target: Fuc(a1-2)[Gal(a1-3)]Gal(b1-3)GalNAc(b1-3)Gal(a1-4)Gal(b1-4)Glc
# Procedure, shortened: as §1
# [14] = target: Fuc(a1-2)[Gal(a1-3)]Gal(b1-3)GlcNAc
# Procedure, shortened: as §1
# [15] = target: Fuc(a1-2)[Gal(a1-3)]Gal(b1-3)GlcNAc(b1-2)Man(a1-3)[Fuc(a1-2)[Gal(a1-3)]Gal(b1-3)GlcNAc(b1-2)Man(a1-6)]Man(b1-4)GlcNAc(b1-4)GlcNAc
# Procedure, shortened: as §1
# [16] = target: Fuc(a1-2)[Gal(a1-3)]Gal(b1-3)GlcNAc(b1-2)Man(a1-3)[Fuc(a1-2)[Gal(a1-3)]Gal(b1-3)GlcNAc(b1-2)Man(a1-6)]Man(b1-4)GlcNAc(b1-4)[Fuc(a1-6)]GlcNAc
# Procedure, shortened: as §1
# [17] = target: Fuc(a1-2)[Gal(a1-3)]Gal(b1-3)GlcNAc(b1-3)GalNAc
# Procedure, shortened: as §1
# [18] = target: Fuc(a1-2)[Gal(a1-3)]Gal(b1-3)GlcNAc(b1-6)GalNAc
# Procedure, shortened: as §1
# [19] = target: Fuc(a1-2)[Gal(a1-3)]Gal(b1-4)Glc
# Procedure, shortened: as §1
# [20] = target: Fuc(a1-2)[Gal(a1-3)]Gal(b1-4)GlcNAc
# Procedure, shortened: as §1
# [21] = target: Fuc(a1-2)[Gal(a1-3)]Gal(b1-4)GlcNAc(b1-2)Man
# Procedure, shortened: as §1
# [22] = target: Fuc(a1-2)[Gal(a1-3)]Gal(b1-4)GlcNAc(b1-2)Man(a1-3)[Fuc(a1-2)[Gal(a1-3)]Gal(b1-4)GlcNAc(b1-2)Man(a1-6)]Man(b1-4)GlcNAc(b1-4)GlcNAc
# Procedure, shortened: as §1
# [23] = target: Fuc(a1-2)[Gal(a1-3)]Gal(b1-4)GlcNAc(b1-2)Man(a1-3)[Fuc(a1-2)[Gal(a1-3)]Gal(b1-4)GlcNAc(b1-2)Man(a1-6)]Man(b1-4)GlcNAc(b1-4)[Fuc(a1-6)]GlcNAc
# Procedure, shortened: as §1
# [24] = target: Fuc(a1-2)[Gal(a1-3)]Gal(b1-4)GlcNAc(b1-3)GalNAc
# Procedure, shortened: as §1
# [25] = target: Fuc(a1-2)[Gal(a1-3)]Gal(b1-4)GlcNAc(b1-3)[Fuc(a1-2)[Gal(a1-3)]Gal(b1-4)GlcNAc(b1-6)]GalNAc
# Procedure, shortened: as §1
# [26] = target: Fuc(a1-2)[Gal(a1-3)]Gal(b1-4)GlcNAc(b1-6)GalNAc
# Procedure, shortened: as §1
# [27] = target: Fuc(a1-2)[Gal(a1-3)]Gal(b1-4)[Fuc(a1-3)]Glc
# Procedure, shortened: as §1
# [28] = target: Fuc(a1-2)[Gal(a1-3)]Gal(b1-4)[Fuc(a1-3)]GlcNAc
# Procedure, shortened: as §1
# [29] = target: Fuc(a1-2)[Gal(a1-3)]Gal(b1-4)[Fuc(a1-3)]GlcNAc(b1-3)GalNAc
# Procedure, shortened: as §1
# [30] = target: Fuc(a1-2)[Gal(a1-4)]Gal(b1-4)GlcNAc
# Procedure, shortened: as §1
# [31] = target: Fuc(a1-2)[GalNAc(a1-3)]Gal
# Procedure, shortened: as §1
# [32] = target: Fuc(a1-2)[GalNAc(a1-3)]Gal(b1-3)GalNAc(a1-3)[Fuc(a1-2)]Gal(b1-4)GlcNAc
# Procedure, shortened: as §1
# [33] = target: Fuc(a1-2)[GalNAc(a1-3)]Gal(b1-3)GalNAc(b1-3)Gal(a1-4)Gal(b1-4)Glc
# Procedure, shortened: as §1
# [34] = target: Fuc(a1-2)[GalNAc(a1-3)]Gal(b1-3)GlcNAc
# Procedure, shortened: as §1
# [35] = target: Fuc(a1-2)[GalNAc(a1-3)]Gal(b1-3)GlcNAc(b1-2)Man(a1-3)[Fuc(a1-2)[GalNAc(a1-3)]Gal(b1-3)GlcNAc(b1-2)Man(a1-6)]Man(b1-4)GlcNAc(b1-4)GlcNAc
# Procedure, shortened: as §1
# [36] = target: Fuc(a1-2)[GalNAc(a1-3)]Gal(b1-3)GlcNAc(b1-2)Man(a1-3)[Fuc(a1-2)[GalNAc(a1-3)]Gal(b1-3)GlcNAc(b1-2)Man(a1-6)]Man(b1-4)GlcNAc(b1-4)[Fuc(a1-6)]GlcNAc
# Procedure, shortened: as §1
binder,measurement,setting,value
DrGal9 (Danio rerio) (protein) MAFYQQPPYYNPRIPFSGPIQGGLQDGKSIIISGRVLPGANRFHVNLQCGSHSEANVALHFNPRYEDTDYVVNNSYLNRTWGSEERKYESPFAQGQTFTLQILVAQDKYKISTNGRHFMDYKHRIPFTQVDTVAVEGMVEVNSVAFQNPAGFIPPQAGYAPQYAVPPGCGFPAFPSAPNYTIPHKTVMNGGLHPGKNIVINGVVNPNAKSIIFNLCYRSGIAFHYNPRFDENVVVRNTNQMEKWGAEERFGGLPFHKGQPFQVTISCNPQHYNVFVNGKQEHTYKHRYTKLNDIDILEICGDLQLTSVQA,glycan array binding signal (z-score),[1],-0.397
same,glycan array binding signal (z-score),[2],-0.368
same,glycan array binding signal (z-score),[3],-0.361
same,glycan array binding signal (z-score),[4],-0.401
same,glycan array binding signal (z-score),[5],-0.402
same,glycan array binding signal (z-score),[6],-0.377
same,glycan array binding signal (z-score),[7],-0.382
same,glycan array binding signal (z-score),[8],-0.396
same,glycan array binding signal (z-score),[9],-0.391
same,glycan array binding signal (z-score),[10],-0.345
same,glycan array binding signal (z-score),Fuc(a1-2)Gal6S(b1-4)Glc,-0.385
same,glycan array binding signal (z-score),[11],-0.413
same,glycan array binding signal (z-score),Fuc(a1-2)[Gal(a1-3)]Gal,-0.377
same,glycan array binding signal (z-score),[12],-0.347
same,glycan array binding signal (z-score),[13],-0.336
same,glycan array binding signal (z-score),[14],0.251
same,glycan array binding signal (z-score),[15],2.69
same,glycan array binding signal (z-score),[16],0.621
same,glycan array binding signal (z-score),[17],-0.085
same,glycan array binding signal (z-score),[18],0.114
same,glycan array binding signal (z-score),[19],0.214
same,glycan array binding signal (z-score),[20],0.599
same,glycan array binding signal (z-score),[21],0.663
same,glycan array binding signal (z-score),[22],3.36
same,glycan array binding signal (z-score),[23],0.997
same,glycan array binding signal (z-score),[24],0.129
same,glycan array binding signal (z-score),[25],0.69
same,glycan array binding signal (z-score),[26],-0.399
same,glycan array binding signal (z-score),[27],-0.408
same,glycan array binding signal (z-score),[28],-0.387
same,glycan array binding signal (z-score),[29],-0.394
same,glycan array binding signal (z-score),[30],-0.358
same,glycan array binding signal (z-score),[31],-0.395
same,glycan array binding signal (z-score),[32],-0.418
same,glycan array binding signal (z-score),[33],-0.343
same,glycan array binding signal (z-score),[34],-0.281
same,glycan array binding signal (z-score),[35],-0.399
same,glycan array binding signal (z-score),[36],-0.402
